The chains are these.
B1: CPEB3 Ribozyme (parent)
chain: UAACAGGGGGCCACAGCAGAAGCGUUCACGUCGCAGCCCCUGUCAGAUUCUGGUGAAUCUGCGAAUUCUGCUGUAUAUCUC

The source gives no read counts; variants with many changes may rest on few reads.

The variants in this data set derive from B1. Kind of data set: self-cleavage, relative activity (ratio to wild type); higher = more cleavage; in vitro, sequencing. In outline:
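Barcoded CPEB3 ribozyme mutants, produced by rounds of error-prone PCR, self-cleaved while being transcribed with T7 RNA polymerase for 5 hours at 37°C and during a subsequent 15 min DNase I step before EDTA was added. Sequencing of template-switched cDNA on Illumina gave cleaved and total reads, and DNA sequencing assigned barcodes to variants. Each variant's relative activity is its cleaved/total read fraction divided by the unmutated ribozyme's fraction, averaged across three batches. A variant needed a minimum of 5 reads.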
For UAACAGGGGGCCACAGCAGAAGCGUUCACGUCGCUGCCCCUGUCAGAUUCCGGUGAGUCUGCGAAUUCUGCUGCAUAUCUC, the self-cleavage was 0.28. Then UAACAGGGGGCCACAGCAGAAGCGUUCACGUCGCUGCCCCUGACAGAUUCUGGUGAAUCUGCGAAUUCUACUGUAUAUCUC, with 0.45; and UAACAGGGGGCCACAGCAGAAGCGUUCACGUCGCUGCCCCUGUCAGAUACUGGUGAAUCUGCGAAAUCUGCAGUAUAUCUC, with 0.15; and UAACAGGGGGCCACAGCAGAAGCGUUCACGUCGCUGCCCCUGUCAGAUUCUGGUGAACCCGCGAAUUCUGCUGUAUAUCUC, with 0.2. As to UAACAGGGGGCCACAGCAGAAGCGUUCACGUCGCUGCCCCUGUCAGAUUCUGGUGAACCUGCGAAUACAGCUGUAUAUCAC, the self-cleavage stood at 0.09.

With UAACAGGGGGCCACAGCAGAAGCGUUCACGUCGCUGCCCCUGUCAGAUUCAGGUGAUUCUGCGAAUUCUGCUGUAUAUCUC, the self-cleavage stood at 0.24. As to UAACAGGGGGCCACAGCAGAAGCGUUCACGUCGCUGCCCCUGCCUGAUUCCGGUGAAUCUGCGAAUUCUGCUGUAUAUCUC, the self-cleavage is 0.06.

As for UAACAGGGGGCCACAGCAGAAGCGUUCACGUCGCUGCCCCUGUCAGAUCCUGGUGAAUCUGCGAAUUCUGCUGAAUAUCUC, the self-cleavage turned out to be 0.3. In the case of UAACAGGGGGCCACAGCAGAAGCGUUCACGUCGCUGCCCCUGUCAGAUUCUGGAGAAUCUGCGAAUUCUGCUGUAUGUCUC, the self-cleavage came out at 0.5. For the variant UAACAGGGGGCCACAGCAGAAGCGUUCACGUCGCUGCCCCUGUCAGAUUCUGGUGAAUCUGCGAACCCUGCUGUAUAUCUC, the self-cleavage came to 0.11.

Turning to UAACAGGGGGCCACAGCAGAAGCGUUCACGUCGCUGCCCCUGUCAGAUUCCGGUGAAUCUGCGACUUCUGCUGUAUAUCUC, the self-cleavage was determined as 0.44. As for UAACAGGGGGCCACAGCAGAAGCGUUCACGUCGCUGCCCCUGUCAGAUUCUGGGGAAUCUGCGUAUCCUACUGCAUAUCUC, the self-cleavage is 0.08. Turning to UAACAGGGGGCCACAGCAGAAGCGUUCACGUCGCAACCCCUGUCGGAUUCAGGUGAAUCUGCGAAUUCUGCUGUAUAUCUC, the self-cleavage was found to be 0.09. Regarding UAACAGGGGGCCACAGCAGAAGCGUUCACGUCGCUGCCCCUGUCAGACUCUGGUGAAUCUGCGAACUCUGCUGUAUAUCUC, the self-cleavage turned out to be 0.18.

UAACAGGGGGCCACAGCAGAAGCGUUCACGUCGCUGCCCCUGUCAGAUUCUGGUGAAUCAGCGAAUUCUGCCAUAUAACUC: the self-cleavage worked out at 0.19. UAACAGGGGGCCACAGCAGAAGCGUUCACGUCGCAACCCCUGUCAGAUUCUGGUGGAUCCGCGAAUUCUGCUAUAUAUCUC: the self-cleavage is 0.17. For the variant UAACAGGGGGCCACAGCAGAAGCGUUCACGUCGCUGCCCCUGUCAGAUUCAGGUGGAUCUGCGAAUUCCGCUGUGUAUCUU, the self-cleavage came out at 0.16.

UAACAGGGGGCCACAGCAGAAGCGUUCACGUCGCUGCCCCUGUCAGAUUCUGGGGAAUCUGCGAAUUCUGCUGUACAUCUC: the self-cleavage was determined as 0.32.

UAACAGGGGGCCACAGCAGAAGCGUUCACGUCGCUGCCCCUGACAGAUUCUGAUGAAUCUACGAAUUCUGCUGUAUAUCUC: the self-cleavage worked out at 0.59. The same measure for UAACAGGGGGCCACAGCAGAAGCGUUCACGUCGCUGCCCCUGUCAGAUACUGGUGAAUCUGCGAAUUCUGCUGUAUGCCUC: 0.11. With UAACAGGGGGCCACAGCAGAAGCGUUCACGUCGCUGCCCCUGACAGAUUCUGGUGAAUCCGCGGAUUCUGCUGUAUAUCUC, the self-cleavage came out at 0.09.

As for UAACAGGGGGCCACAGCAGAAGCGUUCACGUCGCUGCCCCUGCCAGACUCUGGUGAAUCUGCGAAUUCUGCUGUAUAUCUC, the self-cleavage was determined as 0.17. Turning to UAACAGGGGGCCACAGCAGAAGCGUUCACGUCGCUGCCCCUGUCAGAUGCUGGUGUAUCUGCGAGCUCUGCUGUAUGUCUC, the self-cleavage was determined as 0.05.

UAACAGGGGGCCACAGCAGAAGCGUUCACGUCGCUGCCCCUGUCAGAUUCUGGUGAAUCUGCGAACUCUGCUGUAUUACUC: the self-cleavage stood at 0.14. For UAACAGGGGGCCACAGCAGAAGCGUUCACGUCGCUGCCCCUGUCAGAUCCUGGUGAAUUAGCGAAUUCUGCCAUAUAUCUC, the self-cleavage was 0.1. The same measure for UAACAGGGGGCCACAGCAGAAGCGUUCACGUCGCUGCCCCUGCCAGAUUCUGGUGAAUCUGCGGAUCCUGCUGUAUAUCCC: 0.09; for UAACAGGGGGCCACAGCAGAAGCGUUCACGUCGCAACCCCUGUCAGAUUCUGGUGAAUCUGCGUAUUCUGCUGCUUAUCUC: 0.48.

On to UAACAGGGGGCCACAGCAGAAGCGUUCACGUCGCAACCCCUGUCUGACUGUGGUGAAUCUGCGAAUUCUGCUGUAUAUCUC, for which the self-cleavage amounted to 0.11. Turning to UAACAGGGGGCCACAGCAGAAGCGUUCACGUCGCUGCCCCUGUCAGAUUCUGGCGAAUCUGCGAAUUCUGCUGUACAUCUC, the self-cleavage is 0.3.

As to UAACAGGGGGCCACAGCAGAAGCGUUCACGUCGCUGCCCCUGUCAGAUUCUGGUGAACCUGCGAAUUCUGCUGUGUAUCUC, the self-cleavage came out at 0.16.

For the variant UAACAGGGGGCCACAGCAGAAGCGUUCACGUCGCUGCCCCUGUCAGAUUCUGGUGAAUCUGCGAAUUCUGCCGUAUUUCUC, the self-cleavage was 0.56. As for UAACAGGGGGCCACAGCAGAAGCGUUCACGUCGCUGCCCCUGUCAGACUCAGGUGAAUCUGCGAAUUCUGCUGUAUACCUC, the self-cleavage is 0.12. The same measure for UAACAGGGGGCCACAGCAGAAGCGUUCACGUCGCUGCCCCUGUCAGAUUCUGGUGAAUCUGCGAAUUCUGCCGUAUACCUC: 0.6. In the case of UAACAGGGGGCCACAGCAGAAGCGUUCACGUCGCAACCCCUGUCAGGUUCUGGUGGAUCUGCGAAUUCUGCUGUAUAUCUC, the self-cleavage was found to be 0.43.

UAACAGGGGGCCACAGCAGAAGCGUUCACGUCGCUGCCCCUGACGGGUUCUGGUGAAUCUGCGAAUUCUGCUGUAUAUCUC: the self-cleavage was 0.15. With UAACAGGGGGCCACAGCAGAAGCGUUCACGUCGCUGCCCCUGUCAGAUCCUGGUGAGUCUGCGAAUUCUGCUGUAUAUCUC, the self-cleavage was found to be 0.08.

For the variant UAACAGGGGGCCACAGCAGAAGCGUUCACGUCGCUGCCCCGGUCAGGUUCUGGUGGAUCUGCGGAUUCUGCUGUAUAUCUC, the self-cleavage was determined as 0.16. Regarding UAACAGGGGGCCACAGCAGAAGCGUUCACGUCGCUGCCCCUGCCGGAUUCAGGUGAAUCUGCGAACUCUGCUGUAUAUCCC, the self-cleavage is 0.11.

With UAACAGGGGGCCACAGCAGAAGCGUUCACGUCGCUGCCCCUGUCAGAUUCUGGUGAAUCUGCGAAUACUGCGGUAUAUCUC, the self-cleavage amounted to 0.1. As for UAACAGGGGGCCACAGCAGAAGCGUUCACGUCGCUGCCCCUGUCAGAUUCCGGCGAAUCUGCGAAUUCUGCUGUAUAUCUC, the self-cleavage was 0.26. Regarding UAACAGGGGGCCACAGCAGAAGCGUUCACGUCGCAACCCCUGUCAGAUUCUGGUGAGCCCGCGAAUUCUGCUGCACAUCUC, the self-cleavage was 0.05.

For the variant UAACAGGGGGCCACAGCAGAAGCGUUCACGUCGCUGCCCCUGCCCGAUUCUGGUGAAUCUGCGAAUUCUGCUGUAUAUCUC, the self-cleavage is 0.14.

Regarding UAACAGGGGGCCACAGCAGAAGCGUUCACGUCGCUGCCCCUGUCAGAUUCUGGUGAAUCUGCGAAUUCUGCCGUACAUCUC, the self-cleavage was determined as 0.41. Regarding UAACAGGGGGCCACAGCAGAAGCGUUCACGUCGCUGCCCCUGUCAGAUUCUGGUGAAUCUGCGAAUCCAGCUGUAUAUCUC, the self-cleavage is 0.11. As for UAACAGGGGGCCACAGCAGAAGCGUUCACGUCGCUGCCCCUGUCAGAUUCUGGUGAAUCUGCGAAUUCAGCCGUAUAUCUC, the self-cleavage amounted to 0.18. Turning to UAACAGGGGGCCACAGCAGAAGCGUUCACGUCGCUGCCCCUGUCAGACUCUGGCGAAUCUGUGAAUUCUGCUGAAUAUCUC, the self-cleavage stood at 0.1. Then UAACAGGGGGCCACAGCAGAAGCGUUCACGUCGCAACCCCUGUCGGAUUCUGGUGAAUCUGCGAUUUCUGCGGUAUAUCUC, with 0.06. Regarding UAACAGGGGGCCACAGCAGAAGCGUUCACGUCGCUGCCCCUGCCAGAUUCUGGUGAAUCUGCGAACUCUGCUGUAUAUCUC, the self-cleavage was 0.45. Turning to UAACAGGGGGCCACAGCAGAAGCGUUCACGUCGCUGCCCCUGCCAGAUUCUGGUGAAUCUGCGAAUUCUGCUGUAAAUCUC, the self-cleavage was determined as 0.33. Take UAACAGGGGGCCACAGCAGAAGCGUUCACGUCGCAACCCCUGUCAGGUUCUGGUGAAUCUGCGAAUUCUGCUGUAUACCUC: the self-cleavage is 0.09. Take UAACAGGGGGCCACAGCAGAAGCGUUCACGUCGCUGCCCCUGUCAGAUUCAGGUGAAUCCGCGAUUUCUGCUGUAUAUCUC: the self-cleavage was 0.14. In the case of UAACAGGGGGCCACAGCAGAAGCGUUCACGUCGCAACCCCUGUCAGAUUCUGGUGGAUCAGCGAAUUCUGCUGUGUAUCUC, the self-cleavage stood at 0.04. For UAACAGGGGGCCACAGCAGAAGCGUUCACGUCGCUGCCCCUGUCAGAUUCUGGUGAACCUGCGAAUUCUGCUGUAUAUCAC, the self-cleavage stood at 0.12. For UAACAGGGGGCCACAGCAGAAGCGUUCACGUCGCAACCCCUGUCUGAUUCUGGUGAAUCUACGAAUUCUGCUGUAUAUCUC, the self-cleavage was determined as 0.22. On to UAACAGGGGGCCACAGCAGAAGCGUUCACGUCGCUGCCCCUGUCAGAUACAGGUGAAUCUGCGAAUUCUGCUGUCUAUCUC, for which the self-cleavage is 0.27. On to UAACAGGGGGCCACAGCAGAAGCGUUCACGUCGCAACCCCUGUCAGGUUCUGGUGAAUCUGCGAAUUCUGCUGUAUGCCUC, for which the self-cleavage came out at 0.31. Regarding UAACAGGGGGCCACAGCAGAAGCGUUCACGUCGCUGCCCCUGUCAGAUCCUCGUGAAUCUGCGAAUUCUGCUGUAUAUCUC, the self-cleavage amounted to 0.08. Take UAACAGGGGGCCACAGCAGAAGCGUUCACGUCGCUGCCCCUGUCAGAUCCUGGUGAAUCAGCGAAUUCUGCUGUAUAUCAC: the self-cleavage came to 0.06. Then UAACAGGGGGCCACAGCAGAAGCGUUCACGUCGCUGCCCCUGUCAGAUUCUGGGGAGUCUGCGAAUUCUGCUGUAUAUCUC, with 0.15.

For UAACAGGGGGCCACAGCAGAAGCGUUCACGUCGCUGCCCCGGUCUGAUUCUGGUGAAUCUGCGUAUUCUGCUGUAUAUCUC, the self-cleavage was found to be 0.14.

Regarding UAACAGGGGGCCACAGCAGAAGCGUUCACGUCGCUGCCCCUGUCAGACUCUGGUGGAUCUGCGAAUCCCGCCGUAUAUCUC, the self-cleavage is 0.07. In the case of UAACAGGGGGCCACAGCAGAAGCGUUCACGUCGCUGCCCCUGUCAGAUUCUGGUGAAUCGGCGAGUUCUGCUGUAUAUCUC, the self-cleavage was found to be 0.1.

On to UAACAGGGGGCCACAGCAGAAGCGUUCACGUCGCUGCCCCUGUCAGACACUGGUGAAUCCGCGAAUUCUGCUGUAUAUCUC, for which the self-cleavage was determined as 0.11.

In the case of UAACAGGGGGCCACAGCAGAAGCGUUCACGUCGCUGCCCCUGUCAGAUUCUGGUGAAUCUGCGAAAUCUGCAGUAUAUCUC, the self-cleavage was 0.09. Consider UAACAGGGGGCCACAGCAGAAGCGUUCACGUCGCUGCCCCUGUCAGAUACAGGUGAGUCUGCGAAUUCUGCUGUAUAUCUC, for which the self-cleavage turned out to be 0.41.

For the variant UAACAGGGGGCCACAGCAGAAGCGUUCACGUCGCUGCCCCUGACAGAUUCUGGUGAAUCUGCGAAUUCUGCUUUAUAUCUC, the self-cleavage turned out to be 0.92. UAACAGGGGGCCACAGCAGAAGCGUUCACGUCGCAACCCCUGUCGGAUUCUGGUGAAUCUGCGAAUUCUGCUGUAUAUCUU: the self-cleavage is 0.41. As for UAACAGGGGGCCACAGCAGAAGCGUUCACGUCGCUGCCCCUGACGGAUUCUGGUGAAUCUGCGAAUUCUGCUGUAUAUCUC, the self-cleavage worked out at 0.43.

The values above are taken from the RNAGym collection of RNA variant scans (doi:10.1093/nar/gkz1192).
